Among all 150,000 compounds or so, about 540 (0.36%) showed an effect of 50% or more. The list shows a part of the results.

The subject of this assay is Plasmodium falciparum. In words: Primary screen in NF54 nanoGlo assay, in single point, at 2uM, 72h; a lower Z score goes with more inhibition. The class given is functional, Erythrocyte. Conditions: timepoint 72 hour.
For orientation: % Inhibition means the drop in the measured response relative to a control, in per cent. Consider `N#Cc1cccc(CN2CCCC[C@H]2c2nnc(C3CCC3)o2)c1F`, for which the “% Inhibition” value is -11% and the Z score came to 1.81.

In the case of `O=C(O)Cc1ccc(NC(=O)C2CC23CCc2ccccc23)cc1F` (stereo unspecified), the “% Inhibition” value was -3% and the Z score came out at 0.53.

For the compound `CCN(C(=O)CS(=O)(=O)[C@H]1CCCOC1)C1CC1`, the “% Inhibition” value is reported as -13% and the Z score is 1.33.

On to `O=C(Nc1nc2ccccc2[nH]1)c1ccsc1`, for which the “% Inhibition” value is recorded as -8% and the Z score was 1.62.

Take `COc1ccc(NC(=O)N2CCC(Oc3cccc4cccnc34)CC2)c(OC)c1`: the “% Inhibition” value is recorded as -2% and the Z score worked out at 0.39.

Turning to `CCCCN1C(=O)CCC(C(=O)N2CCNCC2)C1c1ccccc1OC` (stereo unspecified), the “% Inhibition” value was 10% and the Z score is listed as -1.27.

As for `COc1cccc([C@H]2NCCc3[nH]cnc32)c1OCc1ccccc1F`, the “% Inhibition” value was -10% and the Z score turned out to be 1.98.

`O=C(CN1CCNC(=O)C1)NCCC1=CCCCC1`: the “% Inhibition” value was -9% and the Z score amounted to 1.75.

As to `Cc1cc(NS(=O)(=O)c2ccc(C(F)F)cc2)cnc1N1CCCCC1`, the “% Inhibition” value was 1% and the Z score is recorded as -0.11.

`Cc1cc(C)c(C(=O)N[C@@H]2CCNC(=O)CC2)o1`: the “% Inhibition” value is on record as -4% and the Z score worked out at 0.62.

Consider `CCS(=O)(=O)NCCNC(=O)N(C)Cc1ccc(OC)c(C)c1`, for which the “% Inhibition” value is given as 4% and the Z score was -0.64.

With `CNC[C@H]1CCN(C(=O)C2(c3ccccc3C)CCCCC2)C1`, the “% Inhibition” value is -10% and the Z score is given as 1.76.

On to `CCc1nc(CN(C)C(=O)N[C@H]2CCCN(C(=O)c3cccs3)C2)no1`, for which the “% Inhibition” value was -25% and the Z score was determined as 2.21.

Take `CCN1CCN(C(=O)c2ccc(C(F)(F)F)cc2)[C@H]2CS(=O)(=O)C[C@H]21`: the “% Inhibition” value is listed as -15% and the Z score came out at 1.64.

As to `CCc1ccc(-c2cc3n(n2)C[C@@](C)(C(=O)NC2CCCCC2)N(c2cc(C)cc(C)c2)C3=O)cc1`, the “% Inhibition” value was determined as 71% and the Z score is listed as -11.34.

Turning to `O=C(Cc1csc(NC(=O)c2ccsc2)n1)Nc1cccnc1`, the “% Inhibition” value is listed as -18% and the Z score stood at 2.09.

On to `CCc1noc(C)c1Cn1nc(CO)c(=O)cc1C`, for which the “% Inhibition” value is 1% and the Z score was -0.2.

For the compound `O=C(Cc1ccc(NCc2cccc(C(F)(F)F)c2)cc1)N1CCc2ccccc2C1`, the “% Inhibition” value is on record as 4% and the Z score is recorded as -0.52.

For the compound `O=S(=O)(C1COC1)N1CCOCC2(CC2)C1`, the “% Inhibition” value was -2% and the Z score worked out at 0.38.

Turning to `CN(Cc1ccccc1N1CCOCC1)c1ncnc(N)c1Cl`, the “% Inhibition” value was 9% and the Z score is on record as -0.82.

As to `Cc1nc2c(c(N3CCC(NC(=O)c4c(F)cccc4F)CC3)n1)CCCC2`, the “% Inhibition” value is -11% and the Z score is listed as 1.43.

For the compound `CCS(=O)(=O)N1C[C@@H]2CN(C(=O)c3cc(C)nn3C)C[C@]2(c2nc(C)no2)C1`, the “% Inhibition” value is -10% and the Z score was 1.36.

Take `COc1ccc(N2CCN(C(=O)Cn3nc(-c4ccccc4)ccc3=O)CC2)cc1`: the “% Inhibition” value was -6% and the Z score is reported as 0.91.
